Data from the supplement of paper PMC8728848.
Some of the results follow.

Key:
Assay in all cases: glycan array binding signal (z-score within array); higher = stronger binding
Details in all cases: glycan notation: IUPAC condensed, linker removed
[1] = molecular target: Man(a1-2)Man(a1-2)Man(a1-3)[Man(a1-2)Man(a1-3)[Man(a1-2)Man(a1-6)]Man(a1-6)]Man(b1-4)GlcNAc(b1-4)GlcNAc
In short: (§1)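 Negative Z-scores can be read as non-binding. The Z-score is calculated within each array and then averaged across arrays of one protein sequence at different concentrations or buffers and across linkers. Arrays, 3228 in all, were curated from the Consortium for Functional Glycomics database and kept only where the protein sequence was available.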

[2] = molecular target: Man(a1-2)Man(a1-2)Man(a1-3)[Man(a1-2)Man(a1-6)[Man(a1-3)]Man(a1-6)]Man(b1-4)GlcNAc(b1-4)GlcNAc
In short: as §1

[3] = molecular target: Man(a1-2)Man(a1-2)Man(a1-3)[Man(a1-3)[Man(a1-6)]Man(a1-6)]Man(b1-4)GlcNAc(b1-4)GlcNAc
In short: as §1

[4] = molecular target: Man(a1-2)Man(a1-3)[Man(a1-2)Man(a1-6)[Man(a1-3)]Man(a1-6)]Man(b1-4)GlcNAc(b1-4)GlcNAc
In short: as §1

[5] = molecular target: Man(a1-2)Man(a1-3)[Man(a1-3)[Man(a1-6)]Man(a1-6)]Man(b1-4)GlcNAc(b1-4)GlcNAc
In short: as §1

Man(a1-3)Man = molecular target: Man(a1-3)Man
In short: as §1

[6] = molecular target: Man(a1-3)Man(a1-6)[Man(a1-3)]Man(b1-4)GlcNAc(b1-4)GlcNAc
In short: as §1

Man(a1-3)Man(b1-4)GlcNAc = molecular target: Man(a1-3)Man(b1-4)GlcNAc
In short: as §1

Man(a1-3)[Man(a1-6)]Man = molecular target: Man(a1-3)[Man(a1-6)]Man
In short: as §1

[7] = molecular target: Man(a1-3)[Man(a1-6)]Man(a1-6)Man(b1-4)GlcNAc(b1-4)GlcNAc
In short: as §1

[8] = molecular target: Man(a1-3)[Man(a1-6)]Man(a1-6)[Man(a1-3)]Man
In short: as §1

[9] = molecular target: Man(a1-3)[Man(a1-6)]Man(a1-6)[Man(a1-3)]Man(b1-4)GlcNAc(b1-4)GlcNAc
In short: as §1

[10] = molecular target: Man(a1-3)[Man(a1-6)]Man(b1-4)GlcNAc(b1-4)GlcNAc
In short: as §1

[11] = molecular target: Man(a1-3)[Man(a1-6)]Man(b1-4)GlcNAc(b1-4)[Fuc(a1-6)]GlcNAc
In short: as §1

Man(a1-6)Man = molecular target: Man(a1-6)Man
In short: as §1

[12] = molecular target: Man(a1-6)Man(b1-4)GlcNAc(b1-4)GlcNAc
In short: as §1

Man(b1-4)GlcNAc = molecular target: Man(b1-4)GlcNAc
In short: as §1

[13] = molecular target: Man(b1-4)Man(b1-4)Man(b1-4)Man
In short: as §1

[14] = molecular target: Man(b1-4)Man(b1-4)Man(b1-4)Man(b1-4)Man
In short: as §1

[15] = molecular target: Man(b1-4)Man(b1-4)Man(b1-4)Man(b1-4)Man(b1-4)Man
In short: as §1

[16] = molecular target: Man6P(a1-3)Man(a1-3)Man(a1-3)Man(a1-2)Man
In short: as §1

Neu(a2-3)Gal(b1-4)Glc = molecular target: Neu(a2-3)Gal(b1-4)Glc
In short: as §1

[17] = molecular target: Neu(a2-3)Gal(b1-4)GlcNAc(b1-3)Gal(b1-4)[Fuc(a1-3)]GlcNAc(b1-3)Gal(b1-4)Glc
In short: as §1

[18] = molecular target: Neu(a2-3)Gal(b1-4)GlcNAc6S(b1-3)Gal(b1-4)Glc
In short: as §1

[19] = molecular target: Neu(a2-3)Gal(b1-4)[Fuc(a1-3)]GlcNAc(b1-3)Gal(b1-4)Glc
In short: as §1

[20] = molecular target: Neu(a2-3)Gal(b1-4)[Fuc(a1-3)]GlcNAc6S(b1-3)Gal(b1-4)Glc
In short: as §1

[21] = molecular target: Neu(a2-3)Gal6S(b1-4)[Fuc(a1-3)]GlcN(b1-3)Gal(b1-4)Glc
In short: as §1

Neu(a2-6)Gal(b1-4)Glc = molecular target: Neu(a2-6)Gal(b1-4)Glc
In short: as §1

[22] = molecular target: Neu4Ac5Ac(a2-3)Gal(b1-4)Glc
In short: as §1

Neu5Ac(a2-3)Gal = molecular target: Neu5Ac(a2-3)Gal
In short: as §1

[23] = molecular target: Neu5Ac(a2-3)Gal(b1-3)GalNAc(b1-4)Gal(b1-4)Glc
In short: as §1

[24] = molecular target: Neu5Ac(a2-3)Gal(b1-3)GalNAc(b1-4)[Neu5Ac(a2-3)]Gal(b1-4)Glc
In short: as §1

[25] = molecular target: Neu5Ac(a2-3)Gal(b1-3)GalNAc(b1-4)[Neu5Ac(a2-8)Neu5Ac(a2-3)]Gal(b1-4)Glc
In short: as §1

[26] = molecular target: Neu5Ac(a2-3)Gal(b1-3)GlcNAc(b1-3)Gal(b1-4)Glc
In short: as §1

[27] = molecular target: Neu5Ac(a2-3)Gal(b1-3)GlcNAc(b1-3)[Fuc(a1-3)[Gal(b1-4)]GlcNAc(b1-6)]Gal(b1-4)Glc
In short: as §1

[28] = molecular target: Neu5Ac(a2-3)Gal(b1-3)[Fuc(a1-4)]GlcNAc
In short: as §1

[29] = molecular target: Neu5Ac(a2-3)Gal(b1-3)[Fuc(a1-4)]GlcNAc(b1-3)Gal(b1-4)Glc
In short: as §1

[30] = molecular target: Neu5Ac(a2-3)Gal(b1-3)[Neu5Ac(a2-6)]GalNAc
In short: as §1

[31] = molecular target: Neu5Ac(a2-3)Gal(b1-3)[Neu5Ac(a2-6)]GlcNAc(b1-3)Gal(b1-4)Glc
In short: as §1

Neu5Ac(a2-3)Gal(b1-4)Glc = molecular target: Neu5Ac(a2-3)Gal(b1-4)Glc
In short: as §1

[32] = molecular target: Neu5Ac(a2-3)Gal(b1-4)GlcNAc
In short: as §1

[33] = molecular target: Neu5Ac(a2-3)Gal(b1-4)GlcNAc(b1-2)Man(a1-3)[Neu5Ac(a2-3)Gal(b1-4)GlcNAc(b1-2)Man(a1-6)]Man(b1-4)GlcNAc(b1-4)[Fuc(a1-6)]GlcNAc
In short: as §1

[34] = molecular target: Neu5Ac(a2-3)Gal(b1-4)GlcNAc(b1-3)Gal(b1-4)Glc
In short: as §1

[35] = molecular target: Neu5Ac(a2-3)Gal(b1-4)GlcNAc6S(b1-3)Gal6S(b1-3)GlcNAc6S
In short: as §1

[36] = molecular target: Neu5Ac(a2-3)Gal(b1-4)[Fuc(a1-3)]GlcNAc(b1-3)Gal
In short: as §1

Measured: glycan array binding signal (z-score)

B1: Malectin (Xenopus laevis), Q6INX3 (protein)
chain: SGLADKVIWAVNAGGESHVDVHGIHYRKDPLEGRVGRASDYGMKLPILRSNPEDQVLYQTERYNEDSFGYDIPIKEEGEYVLVLKFAEVYFAQSQQKVFDVRVNGHTVVKDLDIFDRVGHSTAHDEIIPISIKKGKLSVQGEVSTFTGKLSVEFVKGYYDNPKVCALFIMKGTADDVPMLQPHPGLE
-0.066: [12]
-0.225: [1]
-0.073: [23] | [34]
-0.149: [3]
-0.074: [18]
-0.067: [26]
-0.07: [14] | Neu(a2-3)Gal(b1-4)Glc | [20] | Neu(a2-6)Gal(b1-4)Glc | [32]
-0.068: Man(a1-6)Man | [15]
-0.072: [10] | Neu5Ac(a2-3)Gal(b1-4)Glc
-0.075: [2] | [8] | Man(b1-4)GlcNAc | [16] | [17] | [21] | [35]
-0.076: all other assays above
